Laboratory results published in the supplement of paper PMC9151546.
Single values are uncertain, as repeats are few or missing.

Legend:
[1] = test system: CHO-K1; experiment: hypodiploid nuclei frequency (% of nucleated events); higher = more hypodiploid events (aneugenic)
Method: (§1)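 Flow-cytometric in vitro micronucleus assay (Litron MicroFlow) in CHO-K1 cells in 96-well plates, 19 concentrations (4.5-200 µM, n=1 per concentration). Without S9, cells were exposed for 24 h and sampled at 48 h. With Aroclor 1254-induced rat liver S9, cells were exposed for 3-4 h and sampled at 27-28 h. Read-outs are %MN and %hypodiploid nuclei relative to nucleated events, and relative survival as the nuclei-to-bead ratio versus the 1% DMSO vehicle control (x100).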

[2] = test system: CHO-K1; experiment: relative survival (nuclei to bead ratio vs DMSO control) (% of vehicle control); higher = more surviving cells
Method: as §1

[3] = test system: CHO-K1; experiment: micronucleus frequency (% of nucleated events); higher = more micronuclei (genotoxic)
[4] = concentration: 4.5 (µM), S9 metabolic activation: with S9, exposure time: 3-4 hours
[5] = concentration: 5.63 (µM), S9 metabolic activation: with S9, exposure time: 3-4 hours
[6] = concentration: 7.04 (µM), S9 metabolic activation: with S9, exposure time: 3-4 hours
[7] = concentration: 8.8 (µM), S9 metabolic activation: with S9, exposure time: 3-4 hours
[8] = concentration: 11 (µM), S9 metabolic activation: with S9, exposure time: 3-4 hours
[9] = concentration: 13.7 (µM), S9 metabolic activation: with S9, exposure time: 3-4 hours
[10] = concentration: 17.2 (µM), S9 metabolic activation: with S9, exposure time: 3-4 hours
[11] = concentration: 21.5 (µM), S9 metabolic activation: with S9, exposure time: 3-4 hours
[12] = concentration: 26.8 (µM), S9 metabolic activation: with S9, exposure time: 3-4 hours
[13] = concentration: 33.6 (µM), S9 metabolic activation: with S9, exposure time: 3-4 hours
[14] = concentration: 81.9 (µM), S9 metabolic activation: with S9, exposure time: 3-4 hours
[15] = concentration: 81.9 (µM), S9 metabolic activation: without S9, exposure time: 24 hours
[16] = concentration: 102 (µM), S9 metabolic activation: with S9, exposure time: 3-4 hours
[17] = concentration: 102 (µM), S9 metabolic activation: without S9, exposure time: 24 hours
[18] = concentration: 200 (µM), S9 metabolic activation: with S9, exposure time: 3-4 hours
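Throughout, for hypodiploid nuclei frequency (% of nucleated events): hypodiploid nuclei gated on a flow cytometer with 488 nm excitation after SYTOX Green staining, cultures at 37 °C, positive controls vinblastine without S9 and cyclophosphamide with S9.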
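Throughout, for micronucleus frequency (% of nucleated events): cells lysed with nuclei stained by SYTOX Green, then micronucleus-gated events counted against nucleated events by flow cytometry with 488 nm excitation.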
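Throughout, for relative survival (nuclei to bead ratio vs DMSO control): Lysed-cell nuclei stained with SYTOX Green and counted against counting beads by flow cytometry at 488 nm excitation, with vinblastine (no S9) and cyclophosphamide (plus S9) as positive controls.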

Which results are given for Nc1nc(Cl)nc2c1ncn2[C@H]1C[C@H](O)[C@@H](CO)O1 [Cladribine]?
hypodiploid nuclei frequency [1, 4]: 0.24%; hypodiploid nuclei frequency [1, 5]: 0.26%; hypodiploid nuclei frequency [1, 6]: 0.42%; hypodiploid nuclei frequency [1, 7]: 0.32%; hypodiploid nuclei frequency [1, 8]: 0.36%; hypodiploid nuclei frequency [1, 9]: 0.64%; hypodiploid nuclei frequency [1, 10]: 0.67%; hypodiploid nuclei frequency [1, 11]: 0.92%; hypodiploid nuclei frequency [1, 12]: 0.64%; hypodiploid nuclei frequency [1, 13]: 1.01%; hypodiploid nuclei frequency [1, 14]: 0.38%; hypodiploid nuclei frequency [1, 15]: 1%; hypodiploid nuclei frequency [1, 16]: 0.54%; hypodiploid nuclei frequency [1, 17]: 0.93%; hypodiploid nuclei frequency [1, 18]: 0.54%; relative survival [2, 4]: 52.5; relative survival ([2]; concentration: 4.5 (µM), S9 metabolic activation: without S9, exposure time: 24 hours): 34.6; relative survival [2, 5]: 71; relative survival ([2]; concentration: 5.63 (µM), S9 metabolic activation: without S9, exposure time: 24 hours): 29.8; relative survival [2, 6]: 68.3; relative survival ([2]; concentration: 7.04 (µM), S9 metabolic activation: without S9, exposure time: 24 hours): 30.4; relative survival [2, 7]: 67; relative survival ([2]; concentration: 8.8 (µM), S9 metabolic activation: without S9, exposure time: 24 hours): 39.7; relative survival [2, 8]: 70.8; relative survival ([2]; concentration: 11 (µM), S9 metabolic activation: without S9, exposure time: 24 hours): 35.8; relative survival [2, 9]: 54; relative survival ([2]; concentration: 13.7 (µM), S9 metabolic activation: without S9, exposure time: 24 hours): 35.9; relative survival [2, 10]: 46.1; relative survival ([2]; concentration: 17.2 (µM), S9 metabolic activation: without S9, exposure time: 24 hours): 36.5; relative survival [2, 11]: 54.4; relative survival ([2]; concentration: 21.5 (µM), S9 metabolic activation: without S9, exposure time: 24 hours): 33.9; relative survival [2, 12]: 49.9; relative survival ([2]; concentration: 26.8 (µM), S9 metabolic activation: without S9, exposure time: 24 hours): 36.5; relative survival [2, 13]: 45.5; relative survival ([2]; concentration: 33.6 (µM), S9 metabolic activation: without S9, exposure time: 24 hours): 35.1; relative survival ([2]; concentration: 41.9 (µM), S9 metabolic activation: with S9, exposure time: 3-4 hours): 39.8; relative survival ([2]; concentration: 41.9 (µM), S9 metabolic activation: without S9, exposure time: 24 hours): 34.2; relative survival ([2]; concentration: 52.4 (µM), S9 metabolic activation: with S9, exposure time: 3-4 hours): 35.7; relative survival ([2]; concentration: 52.4 (µM), S9 metabolic activation: without S9, exposure time: 24 hours): 34; relative survival ([2]; concentration: 65.5 (µM), S9 metabolic activation: with S9, exposure time: 3-4 hours): 38.1; relative survival ([2]; concentration: 65.5 (µM), S9 metabolic activation: without S9, exposure time: 24 hours): 35.7; relative survival [2, 14]: 41.6; relative survival [2, 15]: 41.4; relative survival [2, 16]: 47.5; relative survival [2, 17]: 40.2; relative survival ([2]; concentration: 128 (µM), S9 metabolic activation: with S9, exposure time: 3-4 hours): 35.2; relative survival ([2]; concentration: 128 (µM), S9 metabolic activation: without S9, exposure time: 24 hours): 39.6; relative survival ([2]; concentration: 160 (µM), S9 metabolic activation: with S9, exposure time: 3-4 hours): 39.4; relative survival ([2]; concentration: 160 (µM), S9 metabolic activation: without S9, exposure time: 24 hours): 39.2; relative survival [2, 18]: 54.1; relative survival ([2]; concentration: 200 (µM), S9 metabolic activation: without S9, exposure time: 24 hours): 33; micronucleus frequency [3, 4]: 1.84%; micronucleus frequency [3, 5]: 1.9%; micronucleus frequency [3, 6]: 2.26%; micronucleus frequency [3, 7]: 4.32%; micronucleus frequency [3, 8]: 3.94%; micronucleus frequency [3, 9]: 6.82%; micronucleus frequency [3, 10]: 9.11%; micronucleus frequency [3, 11]: 8.98%; micronucleus frequency [3, 12]: 8.74%; micronucleus frequency [3, 13]: 9.83%; micronucleus frequency [3, 14]: 5.92%; micronucleus frequency [3, 15]: 3.54%; micronucleus frequency [3, 16]: 6.31%; micronucleus frequency [3, 17]: 3.17%; micronucleus frequency [3, 18]: 3.88%
